Results taken from PubChem BioAssay AID686978 (National Center for Advancing Translational Sciences (NCATS), 2013).
Screen size: about 420,000 compounds; about 64,000 (15%) were called active. Inconclusive means that the source gave no clear call. Such entries were picked first, then a sample of the others. Calls follow the shape of the dose curve; as a rule, active = well fitted inhibition curve with a large enough effect; inconclusive = small, poorly fitted or top-dose-only effect; inactive = flat fitted curve, though single readings scatter. No potency is given beside an inconclusive call; the fits are too rough.

assay: qHTS for Inhibitors of human tyrosyl-DNA phosphodiesterase 1 (TDP1): qHTS in cells in absence of CPT; conditions: DT40 Tdp1-/- hTDP1 cells, no CPT, ATP luminescence, 48 h; activity change, negative = growth inhibition: at 46.2 µM (top of the series) unless noted; also: nearly all actives have a fitted effect of over 55% in size
In short: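 Cells were dispensed at 400 per well, compounds added by pin tool, plates incubated ≥48 hr at 37 °C, then CellTiter-Glo added for 30 min at room temperature before luminescence reading. Line: DT40 Tdp1-/- complemented with hTDP1; camptothecin omitted.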
% is scaled to controls: 0 for no effect and ±100 for the full control effect; potency is read from the fitted curve at half-maximal effect; tags tell the direction and shape of the fitted curve.

| SMILES | Potency | activity change, negative = growth inhibition |
| --- | --- | --- |
| CCN1C(=O)CC(CC(=O)N2CCC(c3nc4ccc(F)cc4[nH]3)CC2)(c2ccccc2C)C1=O (stereo unspecified) | inconclusive [inhibitor, single point] | – |
| O=C(N/N=C/c1ccc2c(c1)OCO2)c1ccc(NC(=O)c2ccccc2Cl)cc1 | inconclusive [inhibitor, single point] | – |
| Cc1ccc(/C=C2/NC(=O)N(Cc3ccccc3F)C2=O)o1 | inconclusive [inhibitor, partial curve, poor fit] | – |
| O=C(CCc1ccc(S(=O)(=O)NC2CCCCC2)cc1)N(Cc1ccccc1)Cc1ccccc1 | inconclusive [inhibitor, single point] | – |
| O=C(O/N=C1\CCCc2ccccc21)c1cccs1 | – | inactive: -15% |
| CCOC(=O)c1[nH]c2ccccc2c1NC(=O)c1ccccc1F | inconclusive [inhibitor, single point] | – |
| C=C(C)c1cccc(C(C)(C)NC(=O)Nc2nnc(C(C)C)s2)c1 | inconclusive [inhibitor, single point] | – |
| S=C1N(c2ccccc2)CN(C2CCCCC2)CN1c1ccccc1 | inconclusive [inhibitor, partial curve] | – |
| Cc1oc2ncnc(N3CCCCC3)c2c1C(=O)NCC1CCN(Cc2cccc(F)c2)CC1 | inconclusive [inhibitor, single point] | – |
| Cc1ncsc1C(=O)Nc1nc2c(s1)CC(C)CC2 (stereo unspecified) | inconclusive [inhibitor, single point] | – |
| COc1ccc(-c2cc(C3CC3)nc(N)c2C#N)cc1 | inconclusive [inhibitor, partial curve] | – |
| CCOC(=O)c1[nH]c(C)c(C(=O)OCC(=O)N(C)C2CCS(=O)(=O)C2)c1C (stereo unspecified) | – | inactive: 6.33% |
| CC(C)c1ccc(CNc2ccc3c(c2)ncn3C)cc1 | inconclusive [inhibitor, single point] | – |
| CC(=O)N(CN1C(=O)C2CC=CCC2C1=O)c1cccc(Cl)c1 (stereo unspecified) | – | inactive: -26.5% |
| CC(C)N(C(=O)Cn1cc(S(=O)(=O)Cc2ccc(Cl)cc2)c2ccccc21)C(C)C | inconclusive [inhibitor, partial curve] | – |
| Nc1ncnc(Nc2ccc(S(N)(=O)=O)cc2)n1 | – | inactive: -9.97% |
| O=C(C1=C[C@@H](C2CC2)C[C@@H](OCCCCO)O1)N1CCN(Cc2ccc3c(c2)OCO3)CC1 | – | inconclusive: -30.8% [inhibitor] |
| O=c1[nH]c2cc3c(cc2cc1C(c1nnnn1C1CCCC1)N1CCSCC1)OCCO3 (stereo unspecified) | active: 18.4 µM | – |
| Nc1nn(-c2ccccc2)nc1C(=O)OCc1c(F)cccc1Cl | – | inactive: 1.48% |
| Cc1ccc(N(Cc2cccs2)C(=O)c2ccco2)cc1 | inconclusive [inhibitor, single point] | – |
| COc1cc2c(=O)n(Cc3ccco3)c(=O)n(CC(=O)c3cccc(Br)c3)c2cc1OC | inconclusive [inhibitor, partial curve] | – |
| O=C(CN1C(=O)NC2(CCOc3ccccc32)C1=O)Nc1cccc(Cl)c1 (stereo unspecified) | inconclusive [inhibitor, single point] | – |
| COc1ccc(C(O)c2nc(-c3cccc(C(=O)O)c3)cs2)cc1 (stereo unspecified) | – | inactive: -0.355% |
| CC(C)(C)c1ccc(C(=O)NCCCNC(=O)c2ccccn2)cc1 | – | inactive: -29.4% |

| SMILES | Potency | activity change, negative = growth inhibition |
| --- | --- | --- |
| O=C(CCC1N=C2c3ccccc3N=C(SCC(=O)Nc3ccc(F)cc3)N2C1=O)NCc1ccco1 (stereo unspecified) | inconclusive [inhibitor, full curve, poor fit] | – |
| COc1cc(Nc2nc(SCC(=O)c3ccc(Cl)c(Cl)c3)nc3ccccc23)cc(OC)c1 | active: 0.651 µM | – |
| COCCNC(=O)c1cccc(OC2CCN(Cc3ccc(F)c(OC)c3)CC2)c1 | – | inactive: -16.4% |
| CCN1C(=O)/C(=C\c2nc3ccccc3c(=O)n2-c2ccccc2)c2ccccc21 | active: 8.2 µM | – |
| CN1/C(=C\C(=O)c2cccnc2)Sc2ccccc21 | inconclusive [inhibitor, single point] | – |
| O=C(NC1CC(=O)N(c2cccc(F)c2)C1)C(=O)c1c[nH]c2ccccc12 (stereo unspecified) | – | inactive: -18.6% |
| COc1cccc(CCNC(=O)C2CCCN(c3ncnc4c3nc3n4CCCCC3)C2)c1OC (stereo unspecified) | inconclusive [inhibitor, single point] | – |
| Nc1c(C(=O)c2ccccc2)sc2nsc(SCCN3CCOCC3)c12 | inconclusive [inhibitor, single point] | – |
| CCCN(C(=O)COc1ccc(Cl)cc1Cl)c1c(N)n(Cc2ccccc2)c(=O)[nH]c1=O | inconclusive [inhibitor, single point] | – |
| COc1ccc(-n2c(SCC(=O)NCc3ccccc3)nc3c([nH]c4ccccc43)c2=O)cc1 | inconclusive [inhibitor, single point] | – |
| CC1CN(S(=O)(=O)c2ccc(F)cc2)C(C)N1C(=O)N1CCOCC1 (stereo unspecified) | – | inactive: -12% |
| COc1ccccc1N(CC(=O)NC1CCCC1)C(=O)CNC(=O)c1cccs1 | – | inactive: -11.6% |
| CCOC(=O)c1cc(-c2ccccc2)sc1NC(=S)Nc1cc(C)ccn1 | active: 10.3 µM | – |
| CC(=O)Nc1ccc2c(c1)N(C(C)=O)c1ccccc1CC2 | – | inactive: -0.928% |
| O=C(NC1CCCN(c2ccc(C(F)(F)F)cn2)C1)c1ccncc1 (stereo unspecified) | – | inactive: 14% |
| C[C@]12c3[nH]c4ccccc4c3CCN1C(=O)C(CC(=O)NCc1cccc(C(F)(F)F)c1)C[C@@H]2C(=O)N1CCOCC1 (stereo partly specified) | – | inconclusive: -35.9% [inhibitor] |
| CCCC(=O)NC1CCCc2c1cnn2-c1ccc(C)c(C)c1 (stereo unspecified) | inconclusive [inhibitor, single point] | – |
| COCCN(C(=O)c1sc2ccccc2c1Cl)c1c(N)n(CC(C)C)c(=O)[nH]c1=O | – | inactive: 0.722% |
| Cc1ccc2nc(-c3ccc(-c4ccccn4)s3)cn2c1 | inconclusive [inhibitor, single point] | – |
| CCOC(=O)[C@@H]1[C@H]2COc3cc(OC)ccc3[C@H]2N2C(=O)N(c3cccc(F)c3)C(=O)[C@]12C | inconclusive [inhibitor, single point] | – |
| CC(C)(C)OC(=O)N1CCCC(C(=O)CC#N)C1 (stereo unspecified) | inconclusive [inhibitor, partial curve] | – |
| CC(=O)c1ccc(N2CCN(C(=O)c3cccc(Oc4ccccc4)c3)CC2)cc1 | active: 18.4 µM | – |
| COc1cccc(CSc2nc3ccncc3[nH]2)c1 | active: 18.4 µM | – |
| Nc1c(S(=O)(=O)O)cc(Nc2ccc(Nc3nc(Cl)nc(Nc4ccc(S(=O)(=O)O)cc4)n3)c(S(=O)(=O)O)c2)c2c1C(=O)c1ccccc1C2=O | inconclusive [inhibitor, partial curve] | – |

| SMILES | Potency | activity change, negative = growth inhibition |
| --- | --- | --- |
| C/C(Cn1nnc([N+](=O)[O-])n1)=N\NC(=O)c1ccncc1 | active: 20.6 µM | – |
| O=C(/C=N\O)NCCCNCc1ccccc1 | – | inactive: -2.71% |
| COc1ccc(NC(=O)CN(C)C(=O)c2ccc(=O)[nH]c2)cc1 | – | inactive: 13% |
| COc1ccc(N2CCC(CNC(=O)Nc3ccc(C)c(C)c3)C2)cc1 (stereo unspecified) | – | inconclusive: -32.6% [inhibitor] |
| O=C(COC(=O)C1(c2ccc(F)cc2)CCCC1)N1CCN(C(=O)c2ccco2)CC1 | inconclusive [inhibitor, single point] | – |
| Cc1ccc2c(c1)C1CC(C)(O2)N(c2cccc(C(=O)NCc3ccccn3)c2)C(=O)N1 (stereo unspecified) | inconclusive [inhibitor, single point] | – |
| O=C(CCn1c(=O)oc2ccccc21)Nc1nc2ccccc2s1 | inconclusive [inhibitor, single point] | – |
| CCOC(=O)c1ccc(Nc2nn3c(=O)c4ccccc4nc3s2)cc1 | – | inactive: -4.57% |
| Cc1ccc(NS(=O)(=O)c2ccc(-c3ccc(=O)[nH]n3)o2)c(C)c1 | – | inactive: 7.41% |
| Cc1cc(C)cc(N=Cc2c(O)c3ccccc3oc2=O)c1 | inconclusive [inhibitor, single point] | – |
| COc1cc(OC)c(NC(=O)N2CCC(CN3CCCC3)CC2)cc1Cl | – | inactive: 7.28% |
| c1ccc2c(c1)-c1cccc3cncc-2c13 | inconclusive [inhibitor, single point] | – |
| COc1cc(S(=O)(=O)N2CCCCC2)ccc1NC(=O)c1ccc(F)cc1 | – | inactive: -8.2% |
| O=C1CSC(c2ccccc2)N1Cc1ccccn1 (stereo unspecified) | inconclusive [inhibitor, partial curve, poor fit] | – |
| CCC(=O)Nc1ccc(NC(=S)NC(=O)/C=C/c2ccco2)cc1 | inconclusive [inhibitor, single point] | – |
| COC(=O)N1CCCCC1c1cc(C(=O)N2CCOCC2)no1 (stereo unspecified) | – | inactive: -0.25% |
| COc1ccc(C2/C=C\CN(C(=O)CC(C)C)CC(=O)N2Cc2ccc(F)cc2)cc1 (stereo unspecified) | inconclusive [inhibitor, single point] | – |
| Cc1ccc(C(=O)N2CCN(c3cccc(C)c3C)CC2)cc1S(=O)(=O)N1CCOCC1 | active: 23.1 µM | – |
| COc1cc(C(F)(F)F)nc2c(Br)c(C(C)(C)C)nn12 | – | inconclusive: -31.7% [inhibitor] |
| Cc1ccc(C)c(N2CCN(C(=O)CCc3nc(-c4ccccc4C(F)(F)F)no3)CC2)c1 | inconclusive [inhibitor, single point] | – |
| COc1ccc(CC(=O)N[C@@H](CCSC)c2nc3ccccc3[nH]2)cc1 | inconclusive [inhibitor, single point] | – |
| Cc1ccc(CNc2ccc3cc(S(=O)(=O)N4CCCCC4)ccc3n2)cc1 | active: 10.3 µM | – |
| O=C(c1cnc(N2CCN(c3ccccn3)CC2)c2ccccc12)N1CCN(c2cccc(Cl)c2)CC1 | active: 11.6 µM | – |
